# Experimental data: the antibiotic and cytotoxicity screens of Wong et al. (2023)
# This is one part of the list.
# Key:
# HSkMC = human skeletal muscle cells; test: cytotoxicity call (relative viability < 0.9); details: 10 µM
# HepG2 = test: cytotoxicity call (relative viability < 0.9); details: 10 µM
# S. aureus RN4220 = test: growth inhibition call (relative growth <= 0.2); details: 50 µM
Compound,cytotoxicity call (HSkMC),cytotoxicity call (HepG2),growth inhibition call (S. aureus RN4220)
O=C(C[C@@H]1CC[C@@H]2[C@H](COC[C@H](O)CN2S(=O)(=O)c2cccc(Cl)c2)O1)NC1Cc2ccccc2C1,inactive,inactive,inactive
C[C@H](O)C#Cc1cnc2c(c1)C(=O)N([C@@H](C)CO)C[C@H](C)[C@@H](CN(C)C(=O)Nc1ccc(C(F)(F)F)cc1)O2,inactive,inactive,inactive
CC(=O)N[C@H]1CSSC[C@@H](C(N)=O)NC(=O)[C@H](C(C)C)NC(=O)[C@H](C)NC(=O)[C@H](Cc2cnc[nH]2)NC1=O,inactive,inactive,inactive
COc1ccc(S(=O)(=O)Nc2ccc3c(c2)CC(=O)N([C@@H](C)CO)C[C@H](C)[C@H](CN(C)S(=O)(=O)c2cn(C)cn2)O3)cc1,inactive,inactive,inactive
CN1CCN(S(C)(=O)=O)CC1,inactive,inactive,inactive
C[C@H](CO)N1C[C@H](C)[C@H](CN(C)C(=O)Nc2ccc(Cl)cc2)OCCCC[C@H](C)Oc2ccc(NC(=O)C3CCCCC3)cc2C1=O,inactive,inactive,inactive
Cc1noc(C)c1NC(=O)N(C)C[C@H]1Oc2ncc(C#CCN(C)C)cc2C(=O)N([C@H](C)CO)C[C@@H]1C,inactive,inactive,inactive
C[C@@H]1CN([C@H](C)CO)C(=O)c2cccc(NS(=O)(=O)c3cn(C)cn3)c2O[C@@H]1CN(C)C(=O)NC1CCCCC1,inactive,inactive,inactive
C[C@H]1CN([C@@H](C)CO)C(=O)c2cccc(NS(C)(=O)=O)c2O[C@@H]1CN(C)S(=O)(=O)c1ccc(Cl)cc1,inactive,inactive,inactive
C[C@@H]1CN([C@H](C)CO)C(=O)c2cc(NC(=O)Nc3ccc(F)cc3)ccc2O[C@@H](C)CCCCO[C@@H]1CN(C)S(=O)(=O)c1ccc(Cl)cc1,inactive,inactive,inactive
COc1cc(O)c(C(=O)c2ccccc2)cc1S(=O)(=O)O,inactive,inactive,inactive
CC(C)(O)CC(=O)NCCn1ccc2ncnc(Nc3ccc(Oc4cccc(C(F)(F)F)c4)c(Cl)c3)c21,inactive,inactive,active
O=C(O)c1ccc[n+]([O-])c1,inactive,inactive,inactive
O=C(C[C@@H]1CC[C@H]2NC[C@@H](O)COC[C@@H]2O1)NCCN1CCCC1,inactive,inactive,inactive
C[C@H](CO)N1C[C@H](C)[C@@H](CN(C)C(=O)CCCN(C)C)OCCCC[C@H](C)Oc2ccc(N(C)C)cc2C1=O,inactive,inactive,inactive
Cc1noc(C)c1S(=O)(=O)Nc1ccc2c(c1)C(=O)N([C@H](C)CO)C[C@@H](C)[C@@H](CN(C)Cc1ccc3c(c1)OCO3)O2,inactive,inactive,inactive
COc1ccc(S(=O)(=O)Nc2ccc3c(c2)C(=O)N([C@@H](C)CO)C[C@H](C)[C@H](CN(C)Cc2ccncc2)O3)cc1,inactive,inactive,inactive
CCCCCCCCCCCCCCCC(=O)C(F)(F)F,inactive,inactive,inactive
COc1ccc(S(=O)(=O)N(C)C[C@H]2Oc3c(NC(=O)c4ccncc4)cccc3C(=O)N([C@@H](C)CO)C[C@@H]2C)cc1,inactive,inactive,inactive

Compound,cytotoxicity call (HSkMC),cytotoxicity call (HepG2),growth inhibition call (S. aureus RN4220)
C[C@@H]1CN([C@@H](C)CO)C(=O)c2cc(C#CCC3CCCC3)cnc2O[C@@H]1CN(C)C(=O)c1cnccn1,inactive,inactive,inactive
NCCCCCCNC(=O)[C@H]1C[C@H]2C(=O)N[C@@H](Cc3ccccc3)C(=O)N2[C@H]1c1cccc(OCCO)c1,inactive,inactive,inactive
C[C@H]1CN([C@@H](C)CO)C(=O)c2cccc(NS(=O)(=O)c3ccc(Cl)cc3)c2O[C@H]1CN(C)S(C)(=O)=O,inactive,inactive,inactive
O=C1O[C@@H](c2ccccc2)[C@@H](c2ccccc2)N2[C@@H](c3ccccc3OCCO)[C@]3(C(=O)Nc4ccc(C#CC5(O)CCCCCC5)cc43)[C@@H](C(=O)N3CCCCCCC3)[C@H]12,inactive,inactive,inactive
Cl.c1ccc2c(c1)CCCC2C1=NCCN1 (stereo unspecified),inactive,inactive,inactive
C[C@@H]1CN([C@H](C)CO)C(=O)c2ccccc2-c2ccccc2CO[C@H]1CN(C)S(=O)(=O)c1ccc(C(F)(F)F)cc1,inactive,inactive,inactive
C[C@@H]1CCCCO[C@H](CN(C)C(=O)Cc2ccccc2)[C@@H](C)CN([C@@H](C)CO)C(=O)c2cc(NS(=O)(=O)c3ccc(Cl)cc3)ccc2O1,inactive,inactive,inactive
C=CC[C@H](CC(=O)NCCO)C(=O)N[C@@H](COC(=O)[C@@H](CC=C)CC(=O)OC(C)(C)C)Cc1c[nH]c2ccccc12,inactive,inactive,inactive
COc1cc(/C=C/C(=O)N(C)CCN(C)C(=O)/C=C/c2cc(OC)c(OC)c(OC)c2)cc(OC)c1OC,inactive,inactive,inactive
CC(C)=CCCC(C)(O)C1CC=C(C)CC1 (stereo unspecified),active,active,inactive
C[C@@H]1CN([C@H](C)CO)C(=O)c2cc(NC(=O)Nc3ccc(F)cc3)ccc2O[C@@H]1CN(C)Cc1ccc(-c2ccccc2)cc1,active,active,inactive
C[C@@H]1CCCCO[C@@H](CN(C)S(=O)(=O)c2ccccc2)[C@@H](C)CN([C@@H](C)CO)C(=O)c2cc(NC(=O)Nc3ccccc3)ccc2O1,inactive,inactive,inactive
C[C@@H]1CCCCO[C@@H](CN(C)C(=O)Nc2ccc(F)cc2)[C@@H](C)CN([C@H](C)CO)C(=O)c2cc(NC(=O)Nc3ccccc3)ccc2O1,inactive,inactive,inactive
CN(C)CC#Cc1ccc([C@@H]2[C@H](CO)N3C(=O)CN(C(=O)c4cccnc4)C[C@@H]23)cc1,inactive,inactive,inactive
C[C@@H]1CCCCO[C@@H](CN(C)C(=O)Nc2ccc3c(c2)OCO3)[C@H](C)CN([C@H](C)CO)C(=O)c2cc(NC(=O)Nc3cccc4ccccc34)ccc2O1,inactive,inactive,inactive
CC(C)NC(=O)Nc1ccc2c(c1)C(=O)N([C@H](C)CO)C[C@@H](C)[C@H](CN(C)Cc1ccc(Oc3ccccc3)cc1)O2,inactive,inactive,inactive
O=C(O)[C@H]1CCS(=O)(=O)C1,inactive,inactive,inactive
O=C1OCCC/C=C\[C@H]2O[C@@]34C=CCN(c5ccc6ccccc6c5)C(=O)[C@H]3N(CCCO)C(=O)[C@@H]4[C@@H]12,inactive,inactive,inactive
CCc1ccc(-c2cc3c(=O)n(CC(=O)NCCN4CCOCC4)nc(C)n3n2)cc1,inactive,inactive,inactive

Compound,cytotoxicity call (HSkMC),cytotoxicity call (HepG2),growth inhibition call (S. aureus RN4220)
Cc1noc(C)c1S(=O)(=O)N(C)C[C@H]1OCCCC[C@@H](C)Oc2ccc(NC(=O)Nc3ccccc3)cc2C(=O)N([C@H](C)CO)C[C@@H]1C,inactive,inactive,inactive
O=C1CN(S(=O)(=O)Cc2ccccc2)C[C@H]2[C@H](c3ccc(C#Cc4cccc(F)c4)cc3)[C@@H](CO)N12,inactive,active,inactive
Nc1nc2c(s1)COCC2,inactive,inactive,inactive
O=C(C[C@@H]1CC[C@H]2NC[C@H](O)COC[C@@H]2O1)NCCN1CCCC1,inactive,inactive,inactive
COc1ccc(S(=O)(=O)N(C)C[C@H]2Oc3ccc(NC(=O)C4CC4)cc3CC(=O)N([C@H](C)CO)C[C@H]2C)cc1,inactive,inactive,inactive
C[C@@H]1CCCCO[C@@H](CN(C)C(=O)Nc2cccc3ccccc23)[C@H](C)CN([C@@H](C)CO)C(=O)c2cc(NS(C)(=O)=O)ccc2O1,inactive,inactive,inactive
C[C@@H]1CN([C@@H](C)CO)S(=O)(=O)c2ccc(C#CC3CC3)cc2O[C@@H]1CN(C)C(=O)c1cccc(F)c1,inactive,inactive,inactive
C[C@@H]1CN([C@@H](C)CO)C(=O)Cc2cc(NC(=O)CCCCCC(=O)Nc3ccccc3N)ccc2O[C@@H]1CN(C)Cc1ccc(Cl)c(Cl)c1,inactive,inactive,inactive
C[C@H](CO)N1C[C@H](C)[C@H](CN(C)S(=O)(=O)c2cccs2)Oc2ccc(NC(=O)c3ccncc3)cc2C1=O,inactive,inactive,inactive
COc1ccc(NC(=O)Nc2ccc3c(c2)[C@@H]2C[C@H](CC(=O)NCc4ccc(-c5ccccc5)cc4)O[C@@H](CO)[C@@H]2O3)cc1,inactive,inactive,inactive
COCCNC(=O)C[C@@H]1CC[C@H](NS(=O)(=O)c2ccc(C)cc2)[C@@H](CO)O1,inactive,inactive,inactive
Cc1noc(C)c1S(=O)(=O)N(C)C[C@H]1Oc2ccc(NC(=O)NC3CCCCC3)cc2CC(=O)N([C@@H](C)CO)C[C@@H]1C,inactive,inactive,inactive
COc1ccc(S(=O)(=O)N(C)C[C@@H]2Oc3ccc(NC(=O)Nc4cccc(C(F)(F)F)c4)cc3CC(=O)N([C@@H](C)CO)C[C@@H]2C)cc1Cl,active,active,inactive
COc1cc(O)ccc1C(C)=O,inactive,inactive,inactive
CCS(=O)(=O)NC[C@@]12COC[C@H]1CN(c1cc(OC)ncn1)C2,inactive,inactive,inactive
C[C@@H]1CN([C@@H](C)CO)C(=O)c2cc(NS(=O)(=O)c3ccc(Cl)cc3)ccc2O[C@@H]1CN(C)Cc1ccc(C(F)(F)F)cc1,active,active,inactive
C[C@@H]1CCCCO[C@H](CN(C)Cc2ccc(C(=O)Nc3ccccc3N)cc2)[C@@H](C)CN([C@H](C)CO)C(=O)c2cc(NS(=O)(=O)c3cccs3)ccc2O1,inactive,inactive,inactive
CC1CCCC(C)N1 (stereo unspecified),inactive,inactive,inactive
O=C(C[C@H]1CC[C@H]2[C@@H](COC[C@H](O)CN2S(=O)(=O)c2ccc(F)cc2)O1)N[C@H]1CCN(Cc2ccccc2)C1,inactive,inactive,inactive
